Each structure is given as a SMILES string. The full ranking holds about 110,000 compounds; the median of “z-score” is about -0.1, and the highest 2% start at about 2. Some of the results follow. The source made the active and inactive calls.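 How the source made its calls: active means z-score in the third read window above 3 or below -3; inactive means the rest.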

This experiment addresses Metabotropic glutamate receptor 8 (Rattus norvegicus) (UniProt P70579). The experiment is described as follows: rat mGluR8 modulators via GIRK flux, primary screen, cell-based, thallium flux, HTS (AID 488969). Conditions: HEK293 rat mGluR8, GIRK (G protein-gated inwardly rectifying potassium channel) thallium flux, FluoZin2; at 10 µM; stronger effect = higher value; submaximal glutamate (EC20) added with thallium.
UniProt P70579, sequence (P70579 whole entry, looked up): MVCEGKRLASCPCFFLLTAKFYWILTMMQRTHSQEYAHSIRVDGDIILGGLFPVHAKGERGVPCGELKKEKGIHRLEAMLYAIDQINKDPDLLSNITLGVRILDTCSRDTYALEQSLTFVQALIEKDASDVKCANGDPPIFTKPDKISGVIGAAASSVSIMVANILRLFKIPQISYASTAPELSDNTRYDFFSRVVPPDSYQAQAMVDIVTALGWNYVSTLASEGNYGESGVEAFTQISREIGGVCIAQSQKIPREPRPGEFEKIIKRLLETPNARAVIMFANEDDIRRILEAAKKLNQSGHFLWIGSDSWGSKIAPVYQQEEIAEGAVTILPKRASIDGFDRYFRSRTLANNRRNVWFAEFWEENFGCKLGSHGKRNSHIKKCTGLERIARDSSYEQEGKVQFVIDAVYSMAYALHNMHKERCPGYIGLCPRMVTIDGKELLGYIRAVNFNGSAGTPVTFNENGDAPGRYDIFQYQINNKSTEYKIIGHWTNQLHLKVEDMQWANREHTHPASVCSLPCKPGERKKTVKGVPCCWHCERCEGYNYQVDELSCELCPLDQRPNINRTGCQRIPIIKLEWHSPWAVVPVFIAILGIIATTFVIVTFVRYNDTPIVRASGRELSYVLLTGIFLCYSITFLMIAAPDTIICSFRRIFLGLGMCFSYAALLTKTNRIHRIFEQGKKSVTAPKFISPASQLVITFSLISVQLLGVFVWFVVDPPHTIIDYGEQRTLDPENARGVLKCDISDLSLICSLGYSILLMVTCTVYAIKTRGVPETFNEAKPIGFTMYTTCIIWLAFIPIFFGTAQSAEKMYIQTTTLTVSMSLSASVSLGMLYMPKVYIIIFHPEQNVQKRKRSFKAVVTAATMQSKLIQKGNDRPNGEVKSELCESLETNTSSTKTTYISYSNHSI
`Cc1ccc(-c2noc(CSc3nnc(Cc4cccs4)n3-c3ccccc3)n2)cc1`: the z-score was 0.818.
The same measure for `CCOc1ccc(NC(=O)c2ccc(F)c(S(=O)(=O)N3CCN(c4ccccn4)CC3)c2)cc1`: 0.727; for `O=C(CC(c1ccccc1)c1ccccc1)Nc1ccc2c(c1)OCCO2`: -0.863; for `COc1cccc(Sc2cc(N3CCOCC3)nc(-c3ccccc3)n2)c1`: 0.548.
Regarding `CCN1CCc2c(sc(NC(=O)c3ccc(S(=O)(=O)N4CCOCC4)cc3)c2C(=O)OC)C1`, the z-score is -0.0252.
`O=C(O)C1NCCc2ccccc21` (configuration not stated) registered a z-score of 0.415.
With `O=C(C1CCC(CNc2nc(=S)[nH]c3ccccc23)CC1)N1CCN(c2ccccn2)CC1` (configuration not stated), the z-score was -0.654.
Regarding `CCOC(=O)C1=C(c2ccccc2)NC(=S)NC1c1cccc([N+](=O)[O-])c1` (configuration not stated), the z-score is -0.203.
Then `CC(=O)c1ccc(NC(=O)C2Cc3ccccc3CN2C(=O)c2ccccc2)cc1` (configuration not stated), with -0.25; and `COc1ccc(C(=O)N2CCC(C(=O)Nc3ccc4c(c3)OCO4)CC2)cc1`, with 0.0586.
Then `CCOC(=O)c1ccc2c(c1)nc(COc1ccc(OC)cc1)n2CC`, with -0.233; and `Cc1nc(NCCN2CCOCC2)c2nnn(Cc3ccccc3Cl)c2n1`, with -0.7; and `CC(=O)c1sc2nc(SCC(=O)N3CCCCC3)[nH]c(=O)c2c1C`, with -0.237.
For `CSCCC(NC(=O)C1CCC(C)CC1)C(=O)NCCN1CCOCC1` (configuration not stated), the z-score was -0.328.
Turning to `CN(Cc1ccccc1)S(=O)(=O)c1ccc(S(=O)(=O)N2CCN(CCC#N)CC2)cc1`, the z-score is -0.541.
Then `CC(N)C12CC3CC(C1)CC(C(C)N)(C3)C2` (configuration not stated), with 1.22; and `Cc1cc(C)n(S(=O)(=O)c2ccc(Cl)c(Cl)c2Cl)n1`, with -0.268; and `CCCn1c(N)c(C(=O)CSc2nnc(C3CC3)n2Cc2ccccc2)c(=O)[nH]c1=O`, with -0.664.
For `CCOc1ccc(NC(=O)CSC2=NCCN2)cc1`, the z-score was -0.121.
Then `O=C(NCc1ccccc1)c1csc2c1CCCCC2`, with 0.0771.
The same measure for `O=C(O)/C=C/C(=O)Nc1ccccc1-c1ccccc1`: -0.155; for `CC1Cc2ccccc2N1C(=O)CSc1ncc(-c2ccc(F)cc2)n1C` (configuration not stated): -1.1.
Take `S=c1nc(-c2ccccc2Br)[nH][nH]1`: the z-score is -0.253.
With `CCOC(=O)N1CCN(C(=O)CS(=O)(=O)c2cn(Cc3ccccc3C)c3ccccc23)CC1`, the z-score turned out to be 0.384.
Consider `COc1ccc(NC(=S)NN2CCN(C)CC2)cc1OC`, for which the z-score was -0.115.
In turn, `Cn1c(NC(=O)Cc2ccc(F)cc2)cc(=O)n(C)c1=O` returned a z-score of 2.79.
In turn, `c1ccc2c(c1)OCCOCCOCCOCCOc1ccccc1OCCOCCOCCO2` returned a z-score of 0.257.
`Cc1ccc(Nc2nc3c(s2)CCC3)c(C)c1` returned a z-score of 0.322.
The same measure for `CN(C)c1nc(N(C)C)nc(N(C#N)CCOc2ccccc2)n1`: 1.26; for `COc1ccc2cc(C3(C)NC(=O)N(CC(=O)NCc4ccco4)C3=O)ccc2c1` (configuration not stated): -0.0569; for `Cc1ccc(C)c(NC(=O)CSc2nnc([C@@H](N)Cc3ccccc3)o2)c1`: -0.0095.
On to `CC(C)(C)NC(=O)CN(C(=O)Cn1nnc(-c2ccc(Cl)cc2)n1)C1CCN(Cc2ccccc2)CC1`, for which the z-score is -0.128.
The compound `O=C(c1cc(-c2ccncc2)nc2ccccc12)N1CCN(S(=O)(=O)/C=C/c2ccccc2)CC1` yielded a z-score of 0.034.
Take `COc1ccccc1CNC(=O)c1cnn2c(C(F)F)cc(C)nc12`: the z-score is -1.25.
For the compound `O=C(CN1CCN(c2ccc(F)cc2)CC1)Nc1ccc(-n2cnnn2)cc1`, the z-score stood at 0.597.
The compound `COc1ccc(NC(=O)N(CCc2ccccc2)Cc2cc3c(C)cc(C)cc3[nH]c2=O)cc1` came in with a z-score of 0.0539.
Regarding `Cc1ccc(C=C2C(=O)c3ccccc3C2=O)s1`, the z-score was -0.109.
`Cc1ccc(C2CC(=O)NC3=C2C(=O)CCC3)cc1Br` (configuration not stated) registered a z-score of -1.54.
`Nc1nnc(CCN2C(=O)CSC2=O)s1` had a z-score of 0.0801.
Take `Nc1ccc2nc(CCc3ccccc3)[nH]c2c1`: the z-score is -0.112.
Take `CC(C)C(=O)NC(NC(=S)Nc1cccc2cccnc12)C(Cl)(Cl)Cl` (configuration not stated): the z-score was -0.0128.
The same measure for `CCOC(=O)C1C(=O)NC(SCC(=O)OC)=C(C#N)C1c1ccccc1OCC` (configuration not stated): -1.54; for `Cc1ccc(C)n1/N=C1/NC(=O)CS1`: -0.196; for `CC1CN(C(=O)CSc2ncnc3sccc23)CC(C)O1` (configuration not stated): 0.339.
Take `O=C1C(=C(O)c2ccccc2)C(=O)c2ccccc21`: the z-score is -0.164.
Turning to `COc1cccc(/C=N/NC(=O)c2cc3cc([N+](=O)[O-])ccc3s2)c1O`, the z-score was found to be 0.0962.
`C#CC[N+](C)(C)CCCCCCCC`: the z-score turned out to be 0.0327.
With `O=C1C(c2ccnc3ccccc23)=C(O)c2ccccc21`, the z-score came to 0.546.
The compound `O=C(N/N=C/C(Cl)=C\c1ccccc1)c1cnccn1` showed a z-score of -0.148.
`Cc1ccc2[nH]c(SCC(=O)N3CCOCC3)nc2c1C` yielded a z-score of -0.206.
As to `CCc1ccc(N(CC(=O)NC)S(C)(=O)=O)cc1`, the z-score was 0.0579.
The same measure for `CC(C)NS(=O)(=O)c1ccc(NC(=O)NC2CCCCC2)cc1`: 0.0764; for `COC(=O)C1=C(C)N=C2SC(C#N)=C(N)N2C1c1ccc(OCc2ccccc2)cc1` (configuration not stated): 0.149.
`CC1=CCC2COC(c3ccc[n+](Cc4ccccc4)c3)C1C2` (configuration not stated) came in with a z-score of -0.297.
For the compound `COc1cccc(OCC(=O)NN=C2c3ccccc3-c3ccccc32)c1`, the z-score is 0.226.
The compound `CC(=O)c1ccc(NC(=O)Nc2ccc3c(c2)N(C)C(=O)CS3)cc1` had a z-score of -0.385.
Then `CCS(=O)(=O)N1CCCC(C(=O)NCc2ccc(C)cc2)C1` (configuration not stated), with 0.346.
As to `Cc1ccc(S(=O)(=O)Cn2nnnc2C(CC(C)C)N2CCN(c3ccccc3)CC2)cc1` (configuration not stated), the z-score was -0.0547.
In turn, `Cc1c(C(=O)NCc2cccnc2)sc2ncn(CC(=O)N3CCCCC3C)c(=O)c12` (configuration not stated) displayed a z-score of 0.148.
The compound `COC(=O)C1(O)CC(CC(C)C)=NN1C(=O)c1ccccc1` (configuration not stated) registered a z-score of 1.39.
On to `CCOC(=O)c1cnn(-c2ncnc3c2cnn3Cc2ccccc2)c1N`, for which the z-score was -0.248.
As for `COc1ccc(C(CC(=O)Nc2ccc(C)cc2)NC(=O)C(F)(F)F)cc1` (configuration not stated), the z-score was -0.177.
The compound `CCOc1ccc(/C=C/C(=O)C(C(N)=O)=C2SCCS2)cc1` yielded a z-score of -0.0893.
Compound `Cc1ccc(Oc2nsnc2N2CCOCC2)cc1` showed a z-score of -0.488.
Then `Cc1ccc(C(=O)Nc2onc(C)c2C#N)cc1`, with -0.067; and `CCCCC(=O)Nc1ccc(C(=O)N2CCCC(C(=O)OCC)C2)cc1` (configuration not stated), with -0.0379.
Regarding `Cc1nn(-c2ccccc2)c(Cl)c1/C=N/NC(=O)c1ccc(CNc2ccccc2)o1`, the z-score is -2.26.
The same measure for `COc1ccccc1C1CN(c2ccccc2)N=C1c1cccs1` (configuration not stated): 0.853; for `Cc1ccnc(N/N=C/c2ccco2)n1`: -0.224.
In the case of `COCCNC(=O)CSc1ncnc2sccc12`, the z-score was -0.294.
Then `Cc1cc(NC(=O)CCC2CCCC2)no1`, with -0.12; and `CCCOc1ccc(OCC(=O)c2[nH]c(C)c(C(C)=O)c2C)cc1`, with 0.149; and `O=C(NC1CCS(=O)(=O)C1)N1CCCCC1` (configuration not stated), with 0.0966.
The same measure for `CCCNC(=O)C/C(C)=N/NC(=O)COc1ccc(C)cc1Br`: -0.101; for `Cc1ccc(-n2c(C)nc3oc4ccccc4c(=O)c3c2=O)cc1`: -0.331; for `O=C1/C(=C/c2cccc(F)c2)CSc2sccc21`: -0.298.
With `CCN(CC)c1ccc(/C=C(/C#N)c2nc3ccccc3[nH]2)c(OC(C)C)c1`, the z-score is -2.51.
Turning to `CCCS(=O)(=O)N1CCCC(C(=O)NCCCN2CCN(c3ccccc3F)CC2)C1` (configuration not stated), the z-score came out at 0.0581.
Regarding `CC1CN(Cc2nc3c(c(=O)[nH]c(=O)n3C)n2CC(N)=O)CC(C)O1` (configuration not stated), the z-score is 0.852.
`Cc1ccc(S(=O)(=O)NNC(=O)CCC(=O)Nc2ccc(C)c(C)c2)cc1` gave a z-score of 0.564.
`CCS(=O)(=O)c1nc(S(=O)(=O)c2ccc(Cl)cc2)c(NCc2ccco2)s1` registered a z-score of -0.04.
Regarding `Cc1nnc(SCC(=O)NCC2CCCCC2)n(N)c1=O`, the z-score was 0.443.
The same measure for `COC(=O)c1cc(C#N)c(N(C)Cc2ccccc2)nc1C`: -0.154.
The same measure for `COC(=O)/C(N=Nc1c(C)n(C)n(-c2ccccc2)c1=O)=C(\C)O`: -0.0353.
In turn, `Cc1onc(-c2ccccc2)c1C(=O)N1CCc2ccccc21` returned a z-score of 0.315.
`O=C(NC(=S)NCC1COc2ccccc2O1)c1ccccc1` (configuration not stated): the z-score is active: 6.58.
`CCS(=O)(=O)c1ccc2c(c1)N(S(C)(=O)=O)CC(C(=O)NCc1ccccc1OC)O2` (configuration not stated) registered a z-score of 0.173.
As to `CCn1c(SCc2cccc(C)c2)nnc1-c1ccccc1`, the z-score was -0.431.
Then `N#Cc1c(/N=C/c2cccs2)sc2c1CCC2`, with 0.483; and `O=C(NC(=S)Nc1nc2c(s1)CCCC2)c1ccc(C(=O)c2ccccc2)cc1`, with 2.41; and `Cc1ccc(OCC(=O)NCCN2CCOCC2)cc1C`, with 0.361.
In turn, `O=C(O)/C=C/C(=O)Nc1cccnc1` registered a z-score of 0.452.
The compound `CCOC(=O)c1ccc(NC(=O)CSc2nc(SC)ns2)cc1` came in with a z-score of -0.278.
The compound `Cc1ccc(C(=O)N2C3C=CC(C3)C2(C(F)(F)F)C(F)(F)F)cc1` (configuration not stated) came in with a z-score of -0.0848.
Then `Cn1c(=O)[nH]c(=O)c2c1nc(NC1CCCCC1)n2CC(=O)NC1CCCCC1`, with 0.297; and `CCCc1cc(=O)oc2c(CN3CCOCC3)c(O)ccc12`, with -0.0963; and `COc1ccc(N(CC(=O)N2CCN(C)CC2)S(=O)(=O)c2ccccc2)cc1OC`, with 0.644.
`O=C(c1cc(-c2ccccc2)on1)N1CCN(C(=O)c2ccco2)CC1` gave a z-score of 2.21.
Consider `O=C1CC(C(=O)Nc2cccc3ccccc23)C2(CCCC2)O1` (configuration not stated), for which the z-score was -0.404.
`CCc1cc(-c2n[nH]c(C)c2-c2nc3ccccc3n2C)c(O)c(CN2CCN(C)CC2)c1O` returned a z-score of -2.1.
As to `NC(=O)C1CCN(C(c2ccccc2Cl)c2nnnn2Cc2ccc3c(c2)OCO3)CC1` (configuration not stated), the z-score was -0.596.
Regarding `CCOc1ccccc1NC(=O)c1cc(C(=O)c2cc(OC)ccc2O)coc1=N`, the z-score was -0.44.
The same measure for `O=C1c2ccccc2C(=Nc2ccccc2)C1c1cccc(Br)c1` (configuration not stated): -0.25; for `Cc1cccc2c1N(CCCOc1ccc(C(C)(C)C)cc1)C(=O)C2=O`: 0.77.
Then `Cc1ccccc1C(=O)Oc1ccc(Br)cc1C(=S)N1CCCC1`, with -0.342.
Consider `Cc1ccc(S(=O)(=O)N/N=C\c2ccc3c(c2)OCO3)cc1`, for which the z-score was 0.157.
In the case of `COC(=O)/C=C/CSC1=N/C(=C/c2ccc(-n3cncn3)cc2)C(=O)N1`, the z-score was -0.0625.
The compound `COc1ccc(C(=O)n2cnc(N)n2)cc1` displayed a z-score of 0.0178.
Turning to `Clc1ccc(-c2nnc3n2CCCS3)cc1`, the z-score was determined as 0.105.
The same measure for `CCN(CC)S(=O)(=O)c1ccc(NS(=O)(=O)c2ccc(F)cc2)cc1`: 0.169; for `Oc1cc(Cc2ccccc2)cnc1CN1CCCCC1`: 0.389.
`CN1C(=S)SC(/[N+]([O-])=C/c2cccnc2)C1(C)C` (configuration not stated) had a z-score of -0.0373.

The record behind these values is PubChem BioAssay AID488969 (Vanderbilt High Throughput Screening Facility, 2010).
